In all, about 360,000 compounds went through this assay and about 6,000 (1.7%) were called active. Inconclusive means that the source gave no clear call. Such entries were picked first, then a sample of the others. Calls come from the whole dose curve; as a rule, active = well fitted cell-killing curve with a large enough effect; inconclusive = small, poorly fitted or top-dose-only effect, or effect the other way; inactive = flat fitted curve, though single readings scatter. Potencies of inconclusive entries are left out as doubtful fits.
Test: qHTS for induction of synthetic lethality in tumor cells producing 2HG: qHTS for the HT-1080-NT fibrosarcoma cell line;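 note: NT is the 2HG producing partner of a matched IDH1 knockdown line; nearly all actives have a fitted effect of over 55% in size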;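 for activity, negative = less viability: 0% = DMSO-treated cells and -100% = media-only wells without cells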
Conditions: HT-1080-NT fibrosarcoma viability, CellTiter-Glo ATP luminescence, 48 h; activity, negative = less viability: at 46.1 µM (top of the series) unless noted
How it was run: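 Toxicity toward the 2HG-producing NT line was scored as %Activity, normalised to DMSO and no-cell wells, from CellTiter-Glo luminescence after 48 hours' treatment.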
Potency is the fitted concentration of half-maximal effect; tags give direction and shape of the fitted curve.

Row | Compound | Potency | activity, negative = less viability
1 | CC1=C(C(=O)N2CCOCC2)CC(CC(=O)NCc2cccc3ccccc23)C(=O)N1Cc1ccc(C(C)(C)C)cc1 (stereo unspecified) | inconclusive [cytotoxic, single point] | 
2 | CN1C(=O)/C(=C/c2ccccc2F)Sc2ccc(C(=O)N3CCCC3)cc21 | inconclusive [cytotoxic, single point] | 
3 | Cc1cccc(C)c1Nc1nnc(SCC(=O)Nc2ncc(C(F)(F)F)cc2Cl)s1 |  | inconclusive: -39.7% [cytotoxic]
4 | Cc1[nH]n(-c2ccccc2)c(=O)c1C(=O)c1cccc(F)c1 | inconclusive [cytotoxic, single point] | 
5 | Brc1ccc2nc(-c3ccco3)c(Cc3ccccc3)n2c1 | inconclusive [cytotoxic, single point] | 
6 | COc1ccc2[nH]c3c(=O)n(/N=C/[C@H]4C(C)C=C(C)CC4C)c(=O)[nH]c3c2c1 (stereo partly specified) | inconclusive [cytotoxic, single point] | 
7 | O=S(=O)(Nc1ccc(-c2cn3c(n2)SCC3)cc1)c1ccccc1F |  | inactive: 8.36%
8 | Cc1cccc(C(=O)Oc2csc(=S)n2C(=O)c2cccc(C)c2)c1 | active: 7.31 µM | 
9 | Cc1c(C(=O)N2CCC(C)CC2)sc2ncn(CC(=O)N3CCC(C)CC3)c(=O)c12 |  | inactive: 14.7%
10 | CC(C)N(CCO)Cc1nc(C(c2ccccc2)c2ccccc2)no1 |  | inactive: -2.52%
11 | CCOC(=O)C1(CCCc2ccccc2)CCN(S(=O)(=O)N(C)C)CC1 |  | inactive: -25.9%
12 | O=C1/C(=C\c2ccc(O)c(O)c2)SC(=S)N1Cc1ccccc1 | inconclusive [cytotoxic, single point] | 
13 | COc1ccc(C(=O)Nc2ccccc2C(=O)N/N=C/c2cccc3ccccc23)cc1 | active: 18.4 µM | 
14 | OCC1OC(n2cnc3c(NCc4ccccc4O)ncnc32)C(O)C1O (stereo unspecified) | active: 13 µM | 
15 | Cc1ccc2c(c1)N(C(=O)CCC(=O)NC1CCN(Cc3ccccc3)CC1)CC(C)O2 (stereo unspecified) |  | inactive: -19.7%
16 | CC(=O)Oc1ccccc1/C=C/c1ccc2ccccc2[n+]1C | inconclusive [cytotoxic, single point] | 
17 | Cc1ccc(N2CC(=O)Nc3c(sc4nc(C)cc(C)c34)C2=O)cc1 | inconclusive [rising, single point] | 
18 | Cn1nc(C(F)(F)F)c(-c2ccc(F)cc2)c1NC(=O)Nc1ccc(F)cc1 | active: 23.1 µM | 

Row | Compound | Potency | activity, negative = less viability
19 | CC(=O)Nc1cc(-c2ccccc2N(C)C)cn2c(-c3ccccc3)cnc12 | inconclusive [cytotoxic, single point] | 
20 | NC(=O)c1nsc(C(=O)N(Cc2ccc(F)cc2)C(C(=O)NCC2CCCO2)c2ccc(O)cc2)c1N (stereo unspecified) |  | inactive: -1.21%
21 | COc1ccc(Cl)cc1NC(=O)CN(C)C(=O)CN1C(=O)NC(C)(c2ccc3ccccc3c2)C1=O (stereo unspecified) | inconclusive [cytotoxic, partial curve, poor fit] | 
22 | Cc1ccc2nc(SCC(=O)OCc3ccccc3)nc(=O)n2c1 |  | inactive: -17.4%
23 | Cn1c(=O)n(CCO)c(=O)c2c1nc(Br)n2Cc1ccccc1 |  | inactive: -8.56%
24 | COc1ccc(-c2oc(=O)c3cc(OC)c(OC)cc3c2/C=C/c2ccc(OC(C)=O)cc2)cc1 |  | inactive: -22.3%
25 | Cc1cc(NC(=O)CSc2nccn2-c2cccc(C)c2C)no1 | inconclusive [cytotoxic, partial curve] | 
26 | COc1cc(CNC(=O)c2ccc(Cn3nc(C)c(Cl)c3C)o2)cc(OC)c1 | inconclusive [cytotoxic, single point] | 
27 | CCn1c(N2CCN(C(=O)/C=C/c3ccccc3)CC2)nc2ccccc21 |  | inactive: -0.975%
28 | COc1ccc(OC)c(CN2CCC(Cc3ccccc3)CC2)c1 | inconclusive [cytotoxic, single point] | 
29 | CC(C)N1CCN(c2ccc(OC[C@H]3CO[C@](Cn4cncn4)(c4ccc(Cl)cc4Cl)O3)cc2)CC1 | inconclusive [cytotoxic, single point] | 
30 | N#CCCN(Cc1cccnc1)C(=O)c1ccc(S(=O)(=O)N2CCOCC2)cc1 |  | inactive: 15.2%
31 | CC(C)CNC(=O)CN1c2cccc3cccc(c23)S1(=O)=O | inconclusive [rising, single point] | 
32 | COc1cccc(/C=C/c2[nH]c(=O)[nH]c(=O)c2[N+](=O)[O-])c1O | inconclusive [rising, partial curve] | 
33 | COc1ccccc1CNC(=O)COC(=O)Cc1ccc(Cl)cc1 |  | inactive: 4.4%
34 | Sc1oc(-c2ccccc2)cc1C=Nc1ccccc1 | active: 7.94 µM | 
35 | Cc1ccc(O)c(NC(=S)NC(=O)Cc2ccc(Cl)cc2)c1 | inconclusive [cytotoxic, single point] | 
36 | O=C1C(=Cc2cccc(Cl)c2)CCc2ccccc21 | inconclusive [cytotoxic, single point] | 
